According to a collection of fitness landscapes (doi:10.1016/j.celrep.2020.107928):
Whole data set: some 81,000 sequences, median “one-hybrid fitness for binding NBS DNA” near -0.1, cut for the highest 2% near 0.36. The list shows a part of the results.

B1: Caulobacter ParB omega fusion; a variant is named by its letters at X, in order, B8GW30 (parent)
chain: MESVVVGEPGMSEGRRGLGRGLSALLGEVDAAPAQAPGEQLGGSREAPIEILQRNPDQPRRTFREEDLEDLSNSIREKGVLQPILVRPSPDTAGEYQIVAGERAWRAAQRAGLKTVPIMVRELDDLAVLEIGIIENVQRADLNVLEEALSYKVLMEKFERTQENIAQTIGKSXSHVANXMRLLXLPDEVQSYLVSGELTAXHARAIAAAADPVALAKQIIEGGLSVRETEALARKAPNLSAGKSKGGRPPRVKDTDTQALESDLSSVLGLDVSIDHRGSTGTLTITYATLEQLDDLCNRLTRGI

Variants of: B1
Assay: one-hybrid fitness for binding NBS DNA (the Noc-binding site; scaled: cognate 1, non-cognate 0); higher = stronger binding
Conditions: with NBS DNA site
In short: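 Selection: bacterial one-hybrid in E. coli USO, HIS3 reporter with the site 19 bp from the promoter, 48 hours at 37°C on M9-minus-histidine plus 0.1 mM IPTG and 5 mM 3-AT. Libraries were Caulobacter ParB with four randomised specificity codons, sequenced on Illumina before and after selection. Fitness is the rescaled log change in variant-to-wild-type read ratio, anchored to the cognate and non-cognate sites.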

one-hybrid fitness for binding NBS DNA, 0.298:
RKKK

one-hybrid fitness for binding NBS DNA, 0.535:
QQHT

one-hybrid fitness for binding NBS DNA, 0.61:
QRHH

one-hybrid fitness for binding NBS DNA, 0.222:
KQKT

one-hybrid fitness for binding NBS DNA, 0.219:
QMGY

one-hybrid fitness for binding NBS DNA, 0.4:
PRKR

one-hybrid fitness for binding NBS DNA, 0.627:
QHRS

one-hybrid fitness for binding NBS DNA, 0.216:
RHET

one-hybrid fitness for binding NBS DNA, ≤ 0.2:
GEYL
NSMM
AASC
GVRI
YQLH
LEAM
VGMN
FIRY
DLIW
TFNS
STCR
KPPG
PMHR
VPQS
MDWS
LRDV
HYPV
TMDY
SCPE
KTWM
HDRR
VTMA
AYYS
QLPI
PRGH
RVKG
SGNW
YEIR
QGMV
SQLD
YVVK
MKVK
FRPV
NAPF
PGWT
IGNC
TGLT
ADYR
QVCD
EVVG
NEFT
TSWS
LDVY
DQIL
LEGG
IAGC
VPSE
PILG
QHPN
EDYS
LYEP
DLAA
ADTV
TLRT
RPMG
PHHG
WCCS
CGEG
HISC
RLQN
VMSL
PDRY
ETIQ
KSGS
RCFI
WYCS
ELTG
YAQR
PREL
RYYL
CYWC
TQWK
ADHV
CATS
PQNE
HRLN
KNLG
QGKQ
TMPF
NLRQ
QDVN
SCTC
AANM
QDTC
TELS
QHYP
DIGI
GAGC
ENSS
WQGT
TRDY
DSQC
NKPS
PIAT
GCNP
RPIY
HVTL
HAYD
QMHM
VKQD
NCYG
GWAT
ILMP
QQLE
DSLI
DRPA
YWMG
YMGS
NGTM
HHSR
HAND
KAWF
LLKK
RVQV
DLSR
MLIL
YTER
VKGG
PCSP
SPVA
GVRS
SRQC
LFHD
TPDI
HFSN
ALWW
QPVL
VRPR
TPVW
MFAC
KKWG
ERLH
RCMQ
LPKW
MYAF
CTAR
ETHS
AGIT
SLLR
CTHQ
KFTV
PRNE
QYLV
HLLV
AQDR
TVKQ
CPCW
AVHD
FSNL
PGKY
GHCR
ALYG
PGRL
QGVW
CCRF
IKIA
VKWC
GLCA
WKIT
IWLG
INDV
RFIS
LEGA
MRHH
ETNP
TSAR
KQRD
NRRS
CVFS
NFPV
MSSY
LQIK
PHPE
LARL
TWPC
HPRE
EKRF
SSFM
EASI
PMNK
VTDD
PSDQ
HLKL
SNWS
YHHH
MWAT
HDDC
DCES
ALVA
SKYV
GFDR
HHHG
MTSQ
MPAT
EAWG
PDDG
LYCG
DVHG
PLYK
KGDV
GRCG
HFDY
CASD
SKPW
LLPD
NYIV
MNGS
TTES
QMTQ
VRGC
EPSN
WPTC
TIRL
LYHN
EPLG
RCIV
AANF
ALFG
IVVM
RAQA
WDKT
NFVE
QCTN
AEGL
YDLV
CWNR
GVPR
TEGV
DPFG
SNLS
IFSW
HFSK
YRNT
ERAT
DLNR
QVCN
NTKS
RYHN
HINP
TTAL
GAPF
MHRM
QDCT
QRVI
ANQG
CNTT
IMWC
RDGM
GPML
ASLD
HHSF
IFER
RIRV
YRGY
RDKH
FSSR
VSMW
HTNF
HTQN
QNKM
TDDG
HHKW
CASY
QSHQ
TTKT
TTNC
DMCG
YLVH
SELD
PDFR
CSLF
SSPK
AAAR
KDKC
TMLE
AQES
TKLG
PKSI
RMPF
LEQM
LHFS
LAQN
WMNY
KRTG
FAVS
HPPW
HPRR
GRLS
DMFR
VGLR
EMNL
KRGH
RHLP
IDGW

one-hybrid fitness for binding NBS DNA, 0.201:
CAIY

one-hybrid fitness for binding NBS DNA, 0.393:
QLTT

one-hybrid fitness for binding NBS DNA, 0.221:
QNQR

one-hybrid fitness for binding NBS DNA, 1.03:
QMKR
